Not every entry of the source has a single result; some have several. The other results are left out here. An entry can have further records. Values that stand side by side are repeated measurements across runs, samples, wells, individuals or studies. Results filed as inconclusive are left out. The calls were made as follows, unless noted: active = hit-call score of the fitted dose curve at least 0.9, where 1 is the maximum; inactive = score below 0.9.
Legend:
[1] = CCTE_Shafer_MEA_dev_bursting_electrodes_number: CCTE's Neural Network Formation Assay for Number of Bursting Electrodes, Shafer Lab (AID 2284043; active = hit-call score of the fitted dose curve at least 0.9, where 1 is the maximum;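 also: potency is for loss of bursting electrodes relative to DMSO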)
How it was run: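 Number of electrodes reaching ≥1 burst every 2 min was recorded at DIV 5, 7, 9 and 12 and collapsed as trapezoidal area under the curve. Cultures were rat cortical neurons on MEA plates, dosed continuously from plating with medium and treatment refreshed on DIV 5 and 9.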

[2] = CCTE_Shafer_MEA_dev_per_burst_interspike_interval: CCTE's Neural Network Formation Assay for Burst Interspike Interval, Shafer Lab (AID 2284044);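 also: mean spike spacing inside bursts as AUC over recordings on days 5 7 9 12; potency for a decrease of within-burst interspike interval below DMSO level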
Protocol: CCTE_Shafer_MEA_dev assay is conducted using Axion Biosystems 48 well microelectrode array (MEA) plates and Maestro recording system. Each well of the MEA plate contains a grid of 16 microelectrodes embedded in the culture surface. Electrically active cells, such as neurons, can be cultured over the electrodes, and electrical activity in these cells can be recorded extracellularly. The spontaneous firing of neurons is captured from each electrode on a microsecond timescale providing both temporally and spatially precise data. […] The CCTE_Shafer_MEA_dev assay uses primary cultures of rat cortical neurons. Recordings are made on days post-plating 5, 7, 9 and 12. As these cultures mature over time, neural networks develop functional activity and form cohesive networks in which electrical activity can be highly coordinated. CCTE_Shafer_MEA_dev_per_burst_interspike_interval is 1 of 19 assay components of the CCTE_Shafer_MEA_dev assay. […] To collapse across multiple recordings made on days post-plating 5, 7, 9 and 12, the trapezoidal area-under-the-curve of the component is calculated.Data from the assay component CCTE_Shafer_MEA_dev_per_burst_interspike_interval was analyzed into 1 assay endpoint. This assay endpoint, CCTE_Shafer_MEA_dev_per_burst_interspike_interval, was analyzed in the negative analysis fitting direction relative to DMSO as the negative control and baseline of activity. […]

[3] = CCTE_Shafer_MEA_dev_per_network_spike_spike_percent: CCTE's Neural Network Formation Assay for Percent of Spikes in a Network Spike, Shafer Lab (AID 2284054)
How it was run: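 Metric: fraction of spikes falling in a 0.05 s window at network-spike peaks. Recordings were made on days 5, 7, 9 and 12 and collapsed by trapezoidal AUC. Cultures were rat cortical neurons on MEA plates, dosed continuously from plating, re-dosed at media changes.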

[4] = CCTE_Shafer_MEA_dev_mutual_information_norm: CCTE's Neural Network Formation Assay for Mutual Information Normalization, Shafer Lab (AID 2284091);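 also: mutual information between electrodes summarised as area under curve across four recording days; potency is for a decrease in mutual information relative to DMSO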
How it was run: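 Shared information across electrodes, tracked on days 5, 7, 9 and 12 of network development and collapsed as trapezoidal area under the curve. Rat cortical cultures were treated continuously from plating, with treatment renewed at feeds on DIV 5 and 9; DMSO baseline, negative-direction fit.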

**Q.** For CN(C)CCCn1cc(C2=C(c3c[nH]c4ccccc34)C(=O)NC2=O)c2ccccc21, which AC50 [1] is on record?
**A.** Its AC50 is “active: 3.76, 1.33, 4.21, 2.32 µM [separate samples]”.

**Q.** What about the AC50 [2] of the same compound?
**A.** Its AC50 is “active: 7.82, 2.85, 5, 1.99 µM [separate samples]”.

**Q.** What about the AC50 [3] of the same compound?
**A.** The AC50 was “active: 2.8 µM, 816 nM, 2.55 µM, 5 µM [separate samples]”.

**Q.** And the AC50 [4]?
**A.** The AC50 was “active: 449 nM, 239 nM, 1.82 µM, 1.54 µM [separate samples]”.

— PubChem BioAssay (EPA / NIEHS)
